These results are taken from article PMC12820563, “FoxP3 forms a head-to-head dimer in vivo and stabilizes its multimerization on adjacent microsatellites”.

This is one part of the list.

The experiment addresses T1, MBP-FoxP1dN (Mus musculus, UniProt P58462 326-579).
T1 sequence: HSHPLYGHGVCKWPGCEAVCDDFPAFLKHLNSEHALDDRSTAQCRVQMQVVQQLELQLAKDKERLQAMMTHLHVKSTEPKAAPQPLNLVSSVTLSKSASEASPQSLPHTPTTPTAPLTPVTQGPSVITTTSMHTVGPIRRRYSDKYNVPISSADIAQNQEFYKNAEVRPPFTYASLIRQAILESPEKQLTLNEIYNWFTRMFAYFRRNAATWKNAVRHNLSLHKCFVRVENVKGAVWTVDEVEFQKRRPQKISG
In words: PD-seq (MBP pull-down with sequencing); 20 mM Tris-HCl pH 7.5, 100 mM NaCl, 1.5 mM MgCl2, 0.4 uM protein, 0.1 uM dsDNA library, 30 min, room temperature, amylose pull-down; high values mean tight binding. Particulars: protein: recombinant; tags: His6-MBP; chain copies: 2; dsDNA, one strand shown. An outline of the steps:
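E. coli-expressed mouse FoxP3 or FoxP1 fragment, N-terminus removed and tagged with His6-MBP, was used at 0.4 µM against 0.1 µM of a Klenow-filled degenerate double-stranded DNA library. After 30 min at room temperature in Tris pH 7.5 buffer with NaCl and MgCl2, complexes were pulled down on amylose resin and washed three times. Binding is pull-down over input reads-per-million enrichment from pooled replicates of the proteinase K-released, PCR-barcoded, Illumina-sequenced DNA.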
With “GATGATTGTTCTCCCAGCTGATGAATTTGTTTCGTCGAGTAAACAAATTTTCCTAATCTTTCTGTTCAAGCGCCATCTAC”, the binding signal is 1.3 RPM ratio (pull-down/input).
Turning to “GATGATTGTTCTCCCAGCTGATGAATTCTTAGCCTCGAGTAAACAAATTTTCCTAATCTTTCTGTTCAAGCGCCATCTAC”, the binding signal is 0.914 RPM ratio (pull-down/input).
To “GATGATTGTTCTCCCAGCTGATGAATTTATGTGATCGAGTAAACAAATTTTCCTAATCTTTCTGTTCAAGCGCCATCTAC” belongs 1.21 RPM ratio (pull-down/input); to “GATGATTGTTCTCCCAGCTGATGAATTCTGACTCTCGAGTAAACAAATTTTCCTAATCTTTCTGTTCAAGCGCCATCTAC”, 0.804 RPM ratio (pull-down/input); to “GATGATTGTTCTCCCAGCTGATGAATTCCTTTCGTCGAGTAAACAAATTTTCCTAATCTTTCTGTTCAAGCGCCATCTAC”, 0.882 RPM ratio (pull-down/input).
To “GATGATTGTTCTCCCAGCTGATGAATTAGTGACGTCGAGTAAACAAATTTTCCTAATCTTTCTGTTCAAGCGCCATCTAC” belongs 1 RPM ratio (pull-down/input); to “GATGATTGTTCTCCCAGCTGATGAATTGTGCGCGTCGAGTAAACAAATTTTCCTAATCTTTCTGTTCAAGCGCCATCTAC”, 1.12 RPM ratio (pull-down/input).
As for “GATGATTGTTCTCCCAGCTGATGAATTAACCTATTCGAGTAAACAAATTTTCCTAATCTTTCTGTTCAAGCGCCATCTAC”, the binding signal was 0.942 RPM ratio (pull-down/input).
To “GATGATTGTTCTCCCAGCTGATGAATTCCGAGCGTCGAGTAAACAAATTTTCCTAATCTTTCTGTTCAAGCGCCATCTAC” belongs 0.803 RPM ratio (pull-down/input); to “GATGATTGTTCTCCCAGCTGATGAATTGCATAAGTCGAGTAAACAAATTTTCCTAATCTTTCTGTTCAAGCGCCATCTAC”, 1.22 RPM ratio (pull-down/input).
To “GATGATTGTTCTCCCAGCTGATGAATTGTTACAATCGAGTAAACAAATTTTCCTAATCTTTCTGTTCAAGCGCCATCTAC” belongs 1.61 RPM ratio (pull-down/input); to “GATGATTGTTCTCCCAGCTGATGAATTGAATTTCTCGAGTAAACAAATTTTCCTAATCTTTCTGTTCAAGCGCCATCTAC”, 0.851 RPM ratio (pull-down/input); to “GATGATTGTTCTCCCAGCTGATGAATTGAAGCATTCGAGTAAACAAATTTTCCTAATCTTTCTGTTCAAGCGCCATCTAC”, 1.01 RPM ratio (pull-down/input).
Turning to “GATGATTGTTCTCCCAGCTGATGAATTGCACAAGTCGAGTAAACAAATTTTCCTAATCTTTCTGTTCAAGCGCCATCTAC”, the binding signal is 1.13 RPM ratio (pull-down/input).
To “GATGATTGTTCTCCCAGCTGATGAATTAGAGGATTCGAGTAAACAAATTTTCCTAATCTTTCTGTTCAAGCGCCATCTAC” belongs 0.94 RPM ratio (pull-down/input); to “GATGATTGTTCTCCCAGCTGATGAATTAGGCCCCTCGAGTAAACAAATTTTCCTAATCTTTCTGTTCAAGCGCCATCTAC”, 0.821 RPM ratio (pull-down/input).
In the case of “GATGATTGTTCTCCCAGCTGATGAATTCCATCCATCGAGTAAACAAATTTTCCTAATCTTTCTGTTCAAGCGCCATCTAC”, the binding signal is 0.866 RPM ratio (pull-down/input).
Turning to “GATGATTGTTCTCCCAGCTGATGAATTGCACCTTTCGAGTAAACAAATTTTCCTAATCTTTCTGTTCAAGCGCCATCTAC”, the binding signal was 1.19 RPM ratio (pull-down/input).
As to “GATGATTGTTCTCCCAGCTGATGAATTACTTATTTCGAGTAAACAAATTTTCCTAATCTTTCTGTTCAAGCGCCATCTAC”, the binding signal is 1.38 RPM ratio (pull-down/input).
With “GATGATTGTTCTCCCAGCTGATGAATTGCAACTTTCGAGTAAACAAATTTTCCTAATCTTTCTGTTCAAGCGCCATCTAC”, the binding signal is 1.62 RPM ratio (pull-down/input).
Regarding “GATGATTGTTCTCCCAGCTGATGAATTTCGATAATCGAGTAAACAAATTTTCCTAATCTTTCTGTTCAAGCGCCATCTAC”, the binding signal is 1.17 RPM ratio (pull-down/input).
Take “GATGATTGTTCTCCCAGCTGATGAATTGGCAAGCTCGAGTAAACAAATTTTCCTAATCTTTCTGTTCAAGCGCCATCTAC”: the binding signal is 0.832 RPM ratio (pull-down/input).
To “GATGATTGTTCTCCCAGCTGATGAATTGTGCGCATCGAGTAAACAAATTTTCCTAATCTTTCTGTTCAAGCGCCATCTAC” belongs 1.34 RPM ratio (pull-down/input).
To “GATGATTGTTCTCCCAGCTGATGAATTAAGCTAATCGAGTAAACAAATTTTCCTAATCTTTCTGTTCAAGCGCCATCTAC” belongs 1.06 RPM ratio (pull-down/input).
Consider “GATGATTGTTCTCCCAGCTGATGAATTATGATATTCGAGTAAACAAATTTTCCTAATCTTTCTGTTCAAGCGCCATCTAC”, for which the binding signal was 1.24 RPM ratio (pull-down/input).
To “GATGATTGTTCTCCCAGCTGATGAATTACGTTTCTCGAGTAAACAAATTTTCCTAATCTTTCTGTTCAAGCGCCATCTAC” belongs 1.01 RPM ratio (pull-down/input); to “GATGATTGTTCTCCCAGCTGATGAATTCAGGATATCGAGTAAACAAATTTTCCTAATCTTTCTGTTCAAGCGCCATCTAC”, 0.816 RPM ratio (pull-down/input).
To “GATGATTGTTCTCCCAGCTGATGAATTCTATCGCTCGAGTAAACAAATTTTCCTAATCTTTCTGTTCAAGCGCCATCTAC” belongs 0.851 RPM ratio (pull-down/input); to “GATGATTGTTCTCCCAGCTGATGAATTTTCAGTGTCGAGTAAACAAATTTTCCTAATCTTTCTGTTCAAGCGCCATCTAC”, 0.89 RPM ratio (pull-down/input).
Take “GATGATTGTTCTCCCAGCTGATGAATTGCCAGAATCGAGTAAACAAATTTTCCTAATCTTTCTGTTCAAGCGCCATCTAC”: the binding signal is 1.07 RPM ratio (pull-down/input).
On to “GATGATTGTTCTCCCAGCTGATGAATTTTACATTTCGAGTAAACAAATTTTCCTAATCTTTCTGTTCAAGCGCCATCTAC”, for which the binding signal is 0.872 RPM ratio (pull-down/input).
Turning to “GATGATTGTTCTCCCAGCTGATGAATTCTGGGCTTCGAGTAAACAAATTTTCCTAATCTTTCTGTTCAAGCGCCATCTAC”, the binding signal was 0.843 RPM ratio (pull-down/input).
